# Data reported in the supplement of paper PMC3334620.
# The full ranking holds about 33,000 sequences; the median of “E-score (-0.5 to 0.5)” is about -0.032, and the highest 2% start at about 0.36. Some of the results follow.
# Target: T1, Sko1 (UniProt Q02100)
# T1 sequence: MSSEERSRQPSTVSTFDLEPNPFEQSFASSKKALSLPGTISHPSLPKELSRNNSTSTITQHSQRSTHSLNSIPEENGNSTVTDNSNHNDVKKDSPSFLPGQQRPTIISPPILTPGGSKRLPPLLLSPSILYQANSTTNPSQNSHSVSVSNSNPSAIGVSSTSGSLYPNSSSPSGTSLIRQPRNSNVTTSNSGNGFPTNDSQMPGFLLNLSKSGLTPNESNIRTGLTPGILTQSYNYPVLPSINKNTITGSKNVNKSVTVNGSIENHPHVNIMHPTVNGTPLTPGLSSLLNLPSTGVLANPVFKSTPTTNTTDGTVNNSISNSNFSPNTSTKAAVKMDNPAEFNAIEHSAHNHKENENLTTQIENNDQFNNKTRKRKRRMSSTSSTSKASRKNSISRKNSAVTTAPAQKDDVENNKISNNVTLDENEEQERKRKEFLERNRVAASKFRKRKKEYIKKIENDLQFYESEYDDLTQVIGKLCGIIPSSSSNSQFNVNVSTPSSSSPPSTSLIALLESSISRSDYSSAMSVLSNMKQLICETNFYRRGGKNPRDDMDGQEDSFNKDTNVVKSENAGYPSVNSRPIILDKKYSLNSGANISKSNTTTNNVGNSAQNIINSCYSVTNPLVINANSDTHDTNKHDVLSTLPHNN
# Experiment: PBM E-score (8-mer binding enrichment) (E-score (-0.5 to 0.5)); higher = stronger / more preferred TF binding; most listed sequences are background and not binding sites
# Details: protein concentration: 200 nM; construct: GST-full length
# Method: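 Universal 'all 10-mer' protein binding microarrays (Agilent AMADID 015681) probed with GST-tagged S. cerevisiae TFs (full-length or DBD) made by in vitro transcription/translation (PURExpress), about 100-200 nM. Bound TF was detected with fluorescent anti-GST. Each ungapped 8-mer (which stands for itself and its reverse complement) is scored by the PBM enrichment score (E-score), a modified Wilcoxon-Mann-Whitney statistic from -0.5 to +0.5, computed with the Universal PBM Analysis Suite. Scale: above 0.35 generally sequence-specific binding.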
row,Sequence,PBM E-score
1,GGCTCCCC,-0.256
2,CGGGATAC,-0.257
3,AATGAGAA,-0.032
4,CCTGTACC,-0.317
5,CCGACAAC,0.0177
6,CCTGTCAC,-0.0885
7,ACCCACCT,-0.284
8,AGTCGAAT,-0.2
9,AGGTGGGC,-0.257
10,AACCGTTC,-0.078
11,CCCGAGGG,-0.252
12,GTGAAGTA,0.0702
13,TATAACAA,0.187
14,ATTTCGTC,0.343
15,ATTGCACA,0.0452
16,CGCACGAC,0.0225
17,CGGGGAGC,-0.0693
18,GAGAAGTA,0.042
19,AGTGTGAT,0.17
20,ACGCACAC,0.345
21,ATAAGCGA,-0.0228
22,CGTCACAG,0.438
23,ATGCCCAA,-0.255
24,ACGCGATC,0.341
25,GGCTTCAC,-0.149

row,Sequence,PBM E-score
1,GCCGATGA,-0.199
2,CGAGGACA,-0.144
3,AGTCTGAT,-0.126
4,GAGACACC,-0.131
5,CATATAGA,0.0798
6,ATCTGGTG,0.0771
7,CTAAACGA,0.00291
8,CTTCTCGA,-0.08
9,GACCTAAC,0.131
10,GGAAAGGA,-0.186
11,AAGTGTGT,0.153
12,AACGCCGG,-0.208
13,CGTCTATA,0.0863
14,ACAGTAGT,0.0868
15,GCGTAGAA,0.178
16,CACGACCC,-0.154
17,ACTGTGTG,-0.114
18,ATTTTTAC,0.166
19,AACCTAGT,-0.12
20,ATGTTGTA,0.226
21,AGCTGCTG,-0.134
22,CCGCCGGC,-0.123
23,CCGTCAGA,-0.0558
24,ACACAAAA,0.0661
25,CTTTCCCC,-0.0837

row,Sequence,PBM E-score
1,ACTGAAAC,0.173
2,ATCTGCTA,0.0516
3,AATGCGCG,0.171
4,GTGGTAGA,-0.157
5,CTCGCGCA,0.0932
6,ACACGCCT,0.0543
7,CAAGGCGG,-0.154
8,AGAAGCTA,-0.149
9,ACGTTGAC,0.308
10,AATGGCAC,-0.187
11,GTCCCCAA,-0.021
12,GCAGGTAA,0.0611
13,ATACCCAA,0.109
14,CCGTCGAC,-0.145
15,GCTGATAC,-0.0349
16,CCCCAGGA,-0.377
17,AATGACCG,0.0453
18,ACCGGTGG,-0.404
19,CCACAGAC,-0.079
20,GGACTCAC,-0.126
21,GAGGTCAC,0.00312
22,CGACCCCC,-0.292
23,ATGAACCG,-0.0451
24,ACGAAAGC,0.187
25,AATCGTCG,-0.0862

row,Sequence,PBM E-score
1,CCCCGAAA,-0.174
2,ACCTTAAG,-0.161
3,TAATCACA,0.146
4,AAGCTGCA,0.05
5,AAGCCTCT,-0.198
6,AAGGTGAG,-0.0794
7,CAAATTGA,-0.145
8,TACGAACA,0.273
9,CAACCTCA,0.0206
10,CTACTGCC,-0.226
11,GCCCTTGA,-0.245
12,CGGAAGAA,0.0668
13,CCCGCAAC,-0.136
14,TAGATGAA,0.0876
15,AAAAACTG,-0.0634
16,CGGCAGGA,-0.344
17,GAGGCTAA,-0.073
18,ACGCTAGT,-0.0767
19,CGGTGGCC,-0.211
20,GCCACTTA,-0.086
21,ATCTATTG,0.134
22,TACGACTA,0.151
23,GAGGTGCC,-0.231
24,GGGAATGA,0.163
25,AGACGCGG,-0.0753

row,Sequence,PBM E-score
1,CCCCACTA,-0.065
2,CAGCATAC,0.0626
3,CAGAGCTC,-0.185
4,GCACCAAC,-0.211
5,GCGCGACA,0.0211
6,GAGTTACC,-0.14
7,ACGGTTCA,-0.126
8,AGGCACAA,-0.0774
9,AGAGATCT,-0.147
10,GAACCGTC,-0.153
11,ACGGGCTC,-0.324
12,ACAACGCG,0.0581
13,AGGGAACC,-0.185
14,CGATCCTA,-0.24
15,GAGCTCGC,-0.0227
16,GAGTGTAA,-0.15
17,AAGGAAAA,0.0489
18,CCAGTATC,-0.319
19,AAGGCGGC,-0.114
20,AGGGCAAT,-0.231
21,CCAATCAA,-0.143
22,AGGGTAAA,-0.00269
23,ACATAGTA,0.26
24,AACTTAAT,0.202
25,AACATATG,0.0524

row,Sequence,PBM E-score
1,CCTTGAGA,-0.233
2,CTATGCGA,-0.0756
3,CATGACCA,0.0587
4,ATAATCAT,0.286
5,ACCAGATC,-0.168
6,GGCTAGCA,-0.247
7,CCCGTGCG,-0.0353
8,ATGACGCC,0.449
9,ACCTACCT,-0.109
10,ATCGAACG,0.165
11,AAATATGA,0.23
12,ACATCTGC,-0.126
13,CTGAGGAC,-0.113
14,GGTGTCGA,-0.11
15,TTGTTAAA,-0.0742
16,AGAACAGG,-0.121
17,CATAATCC,-0.0152
18,GCGCAGTA,0.0755
19,ACTACGTC,0.433
20,GATCGTCC,-0.19
21,CTTGCCCC,-0.383
22,GAATGGGA,-0.159
23,ATATCTTC,0.129
24,CCGAATTA,-0.0393
25,CACGGTTC,-0.0555

row,Sequence,PBM E-score
1,AAGCACCC,-0.213
2,CTTTAAAA,0.152
3,AATCTGAG,0.102
4,CAATACGA,0.141
5,ACGGTCTG,-0.0646
6,GTGCCCAA,-0.0696
7,GAGTATAC,0.192
8,CAGCTACA,-0.123
9,GCCTTGCC,-0.237
10,GACTAAGC,-0.231
11,CGGTTAGC,-0.2
12,ATTAAGTA,0.152
13,CGTTAATA,0.122
14,GGGACAAC,-0.139
15,GCCGGCCC,-0.356
16,CAAGCTTA,0.00458
17,GACTGTCC,-0.249
18,GGGAAAAC,-0.118
19,TATGACAA,0.21
20,CAATCAGG,-0.067
21,ACCATTCG,-0.0948
22,CGTAAGTC,0.276
